This is one part of the list.
tested on: T1, C. trachomatis L2/434/Bu expressing GFP (CTL2-GFP); parameters: species or system HeLa; C. trachomatis total inclusion area by high-content imaging, normalised to DMSO; details: total inclusion area; 28.5 h, 10 µM; inhibitor
T1 construct: L2/434/Bu GFP intracellular growth in HeLa cells
How it was run: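 Post-fluorescence-read fixation, DNA staining with Hoechst and high-content imaging; GFP inclusion area and number per well, and nuclei counts, used as proxies for bacterial growth and host viability.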

Q: `COc1ccc(-c2nnc3ccc(SCc4ccccn4)nn23)cc1OC` [CBK287528] was tested. Which “% of control remaining” value did it give?
A: 98.4848

Q: Which “% of control remaining” value does the source give for `Cc1nc2c(c(=O)[nH]1)CN(Cc1ccccc1F)CC2` [CBK283948] here?
A: 107.649

Q: With `COc1ccc(CCCC(=O)n2c(=O)n(CCc3c[nH]c4ccccc34)c3ccccc32)cc1` [CBK106514] as the compound, how does the “% of control remaining” value read?
A: 111.308

Q: With `Nc1ccc(S(=O)(=O)c2ccc(-n3c(=O)c4cc5c(=O)n(-c6ccc(S(=O)(=O)c7ccc(N)cc7)cc6)c(=O)c5cc4c3=O)cc2)cc1` [CBK261490] as the compound, how does the “% of control remaining” value read?
A: 102.421

Q: How did the “% of control remaining” value turn out when `O=C(c1nc2ncccn2n1)N1CCc2ccccc2C1` [CBK288079] was run?
A: 89.5435

Q: How did the “% of control remaining” value turn out when `Cc1ccc(C)c(-n2nnnc2SC(C)C(=O)N2CCCC2)c1` (centres unmarked) [CBK295204] was run?
A: 98.5745

Q: `Cc1cccc(-c2noc([C@@H]3Cc4[nH]cnc4CN3C(=O)NC(C)C)n2)c1` [CBK288962] was tested. Which “% of control remaining” value did it give?
A: 109.657

Q: How did the “% of control remaining” value turn out when `CSc1nnc(-c2ccccc2[N+](=O)[O-])n1CC(C)C` [CBK074959] was run?
A: 94.4165

Q: For `O=C1c2ccccc2S(=O)(=O)N1CC(O)Cn1c2ccc(Cl)cc2c2cc(Cl)ccc21` (centres unmarked) [CBK262327], which “% of control remaining” value is on record?
A: 95.4112

Q: With `Cc1cccc(CN(CCCN)C(=O)Nc2ccc(C(C)(C)C)cc2)n1` [CBK033365C] as the compound, how does the “% of control remaining” value read?
A: 49.0721

Q: Which “% of control remaining” value does the source give for `CCOC(=O)c1sc2nc(C)cc(C)c2c1N` [CBK097355] here?
A: 120.228

Q: Which “% of control remaining” value does the source give for `O=C(COc1ccc(S(=O)(=O)NC2CCCCC2)cc1)Nc1ccc2c(c1)OCO2` [CBK265960] here?
A: 88.839

Q: How did the “% of control remaining” value turn out when `COc1ccc(CCNC(=O)CN2CCCC2Cn2cccn2)cc1` (centres unmarked) [CBK306147] was run?
A: 78.4663

Q: For `COc1cccc(-c2cncc(C3CCCN(Cc4ccc5[nH]ccc5c4)C3)n2)c1` (centres unmarked) [CBK286151], which “% of control remaining” value is on record?
A: 112.898

Q: `COc1cccc(NC(=O)CCS(=O)(=O)c2ccccc2)c1` [CBK270150] was tested. Which “% of control remaining” value did it give?
A: 104.154

Q: How did the “% of control remaining” value turn out when `O=C(CC1Sc2ccccc2NC1=O)Nc1ccc(C(F)(F)F)cc1` (centres unmarked) [CBK287585] was run?
A: 91.7726

Q: `COc1ccc(C(=O)NCC(O)CN2CCOCC2)cc1[N+](=O)[O-]` (centres unmarked) [CBK265643] was tested. Which “% of control remaining” value did it give?
A: 98.3656

Q: How did the “% of control remaining” value turn out when `CCNC(=O)Nc1ccc([C@@H](O)[C@H]2COCC(=O)N2CC)cc1` [CBK289696] was run?
A: 102.757

Q: With `CC(c1ccc(Cl)cc1)N(CCN(C)C)c1ccccn1` (centres unmarked) [CBK012273F] as the compound, how does the “% of control remaining” value read?
A: 27.3317

Q: How did the “% of control remaining” value turn out when `O=C(NC[C@H]1O[C@@H](CC(=O)N2CCN(c3ccccn3)CC2)[C@H](O)[C@@H]1O)C1CC1` [CBK288904] was run?
A: 111.171

Q: For `Nc1cc(=O)[nH]c(=O)n1Cc1ccc(Cl)cc1` [CBK288002], which “% of control remaining” value is on record?
A: 98.4632

Q: How did the “% of control remaining” value turn out when `O=C(Oc1cccc2cccnc12)c1ccc(Br)o1` [CBK019461] was run?
A: 99.2699

Q: With `COc1ccc(Cn2nc(NS(=O)(=O)c3ccc(-c4ccon4)s3)c3ccccc32)cc1` [CBK048031] as the compound, how does the “% of control remaining” value read?
A: 90.6572

Q: With `COc1ccc(-c2cncc(C3CN(Cc4cccc5ncccc45)CCO3)n2)cc1` (centres unmarked) [CBK285947] as the compound, how does the “% of control remaining” value read?
A: 115.619

Q: For `Cc1nccn1CC1(O)CCN(C(=O)Cc2cccc(F)c2)CC1` [CBK282184], which “% of control remaining” value is on record?
A: 95.6066

Q: `Cc1ccc(OCc2cc(-c3ccco3)on2)c([N+](=O)[O-])n1` [CBK233261] was tested. Which “% of control remaining” value did it give?
A: 112.978

Q: With `O=C(NC(Nc1ncccn1)C(Cl)(Cl)Cl)c1ccccc1` (centres unmarked) [CBK261408] as the compound, how does the “% of control remaining” value read?
A: 96.0194

Q: `O=S(=O)(/N=C(/NS(=O)(=O)c1cccc2ccccc12)c1ccccc1)c1ccccc1` [CBK263105] was tested. Which “% of control remaining” value did it give?
A: 97.1917

Q: How did the “% of control remaining” value turn out when `COc1ccc(-c2cnc(NS(C)(=O)=O)c(C(=O)NCc3ccco3)c2)cc1` [CBK076539] was run?
A: 75.0283

Q: `c1ccc(-c2nc3cnccn3c2Nc2ccc3c(c2)OCCO3)cc1` [CBK287857] was tested. Which “% of control remaining” value did it give?
A: 105.176

Q: `NC1CCN(c2nccnc2OCCOc2cccnc2)CC1` [CBK003889F] was tested. Which “% of control remaining” value did it give?
A: 96.6991

Q: With `COc1cccc(NC(=O)NCCc2ccncc2)c1` [CBK270022] as the compound, how does the “% of control remaining” value read?
A: 69.8923

Q: Which “% of control remaining” value does the source give for `CCNC(=O)Nc1ccc(-c2ccc(SC)cc2)c2ccccc12` [CBK083723] here?
A: 98.1486

Q: Which “% of control remaining” value does the source give for `O=C(O)COCC(=O)NC12CC3CC(CC(C3)C1)C2` [CBK287065] here?
A: 78.5986

Q: With `O=C1CCCCCN1CP(=O)(O)CCc1ccccc1` [CBK262313] as the compound, how does the “% of control remaining” value read?
A: 97.9736

Q: With `CN1CC(=O)N2CCOC(C2)c2cccc(n2)NC(=O)C/C=C/CC2(CCN(c3ncccn3)CC2)C1=O` (centres unmarked) [CBK292188] as the compound, how does the “% of control remaining” value read?
A: 100.532

Q: How did the “% of control remaining” value turn out when `O=S(=O)(Nc1ccc2nsnc2c1)c1cccc(C(F)(F)F)c1` [CBK062221] was run?
A: 99.6189

Q: For `Cn1cc(NC(=O)c2ccc(COc3c(F)c(F)cc(F)c3F)o2)c(C(=O)O)n1` [CBK287014], which “% of control remaining” value is on record?
A: 98.2316

Q: With `Cc1nc(CCNC(=O)C2CCN(C(=O)c3ccc(F)cc3)CC2)cs1` [CBK304378] as the compound, how does the “% of control remaining” value read?
A: 50.4595

Q: How did the “% of control remaining” value turn out when `CCN1CCOC(CNc2nc(-c3ccncc3)nc3c2CCC3)C1` (centres unmarked) [CBK306215] was run?
A: 70.5436

Q: For `Cc1c(C(=O)NCCCCn2ccnc2)[nH]c2ccccc12` [CBK283246], which “% of control remaining” value is on record?
A: 71.2935

Q: Which “% of control remaining” value does the source give for `Cc1nonc1NC(=O)CN1CCCC1` [CBK261840] here?
A: 103.33

Q: Which “% of control remaining” value does the source give for `Cc1ccc(Cl)c(NC(=O)NCCN2CCN(c3ccccc3[N+](=O)[O-])CC2)c1` [CBK267293] here?
A: 97.9073

Q: `CC(C)(C)c1cc(C(=O)Nc2ccncc2)n(Cc2ccc(Cl)cc2Cl)n1` [CBK107284] was tested. Which “% of control remaining” value did it give?
A: 34.7793

Q: `O=C(NCCN1CCOCC1)c1cc(-c2ccc(Cl)cc2)nc2ccccc12` [CBK262650] was tested. Which “% of control remaining” value did it give?
A: 100.071

Q: `COC(=O)c1c(NC(=S)Nc2cn(C)nc2C(N)=O)sc2c1CCCCC2` [CBK266849] was tested. Which “% of control remaining” value did it give?
A: 117.973

Q: With `CN1CCN(CC(=O)Nc2ccc(Cl)cc2C(=O)c2ccccc2)CC1` [CBK266246] as the compound, how does the “% of control remaining” value read?
A: 92.7851

Q: With `CS(=O)(=O)NC1CCCN(c2ncnc3ccccc23)C1` (centres unmarked) [CBK305619] as the compound, how does the “% of control remaining” value read?
A: 46.564

Q: How did the “% of control remaining” value turn out when `NS(=O)(=O)c1ccc(CNC(=O)c2cc(-c3cccc(Cl)c3)nc3ccccc23)cc1` [CBK267774] was run?
A: 100.106

Q: Which “% of control remaining” value does the source give for `CN(Cc1ccccc1)Cc1nc2c([nH]1)c(=O)[nH]c(=O)n2C` [CBK269442] here?
A: 80.2089

Reference: article PMC12040169 (PLOS Biology, 2025)
